Assay results reported in PMC3998908.
These are yes or no findings as the source states them, for the method shown. In cells and extracts the contact can be indirect. Some binding calls cover weakened binding; strength is not graded here. Where a sequence is shown, tags or fusion partners need not be part of it.

The chains behind the UniProt entries cited, without tags or fusion partners.
UniProt O35652: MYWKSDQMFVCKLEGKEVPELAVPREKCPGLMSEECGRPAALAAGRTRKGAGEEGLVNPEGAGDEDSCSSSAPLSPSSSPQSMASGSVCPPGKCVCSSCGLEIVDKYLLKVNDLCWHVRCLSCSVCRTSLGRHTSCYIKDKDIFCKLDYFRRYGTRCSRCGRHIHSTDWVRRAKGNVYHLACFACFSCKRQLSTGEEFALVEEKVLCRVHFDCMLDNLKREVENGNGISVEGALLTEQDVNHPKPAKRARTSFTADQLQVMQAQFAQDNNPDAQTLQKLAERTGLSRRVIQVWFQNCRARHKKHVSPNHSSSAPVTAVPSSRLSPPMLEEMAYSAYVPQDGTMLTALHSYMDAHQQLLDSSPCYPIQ

T1: GST-NLI (mammalian expression, pEBG) (mouse) (UniProt P70662)
T1 sequence: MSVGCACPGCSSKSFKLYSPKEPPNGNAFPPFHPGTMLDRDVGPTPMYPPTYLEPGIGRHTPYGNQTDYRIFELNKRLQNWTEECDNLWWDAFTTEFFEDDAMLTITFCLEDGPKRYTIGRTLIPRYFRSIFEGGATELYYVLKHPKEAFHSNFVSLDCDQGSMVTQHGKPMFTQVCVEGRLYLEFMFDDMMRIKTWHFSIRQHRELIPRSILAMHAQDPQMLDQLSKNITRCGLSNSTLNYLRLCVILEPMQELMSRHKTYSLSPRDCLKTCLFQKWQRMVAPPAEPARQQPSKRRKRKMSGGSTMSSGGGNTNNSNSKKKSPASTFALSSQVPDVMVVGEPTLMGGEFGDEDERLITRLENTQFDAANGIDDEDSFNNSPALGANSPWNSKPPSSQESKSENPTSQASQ

T2: GST-NLI (mouse) (UniProt P70662)
T2 sequence: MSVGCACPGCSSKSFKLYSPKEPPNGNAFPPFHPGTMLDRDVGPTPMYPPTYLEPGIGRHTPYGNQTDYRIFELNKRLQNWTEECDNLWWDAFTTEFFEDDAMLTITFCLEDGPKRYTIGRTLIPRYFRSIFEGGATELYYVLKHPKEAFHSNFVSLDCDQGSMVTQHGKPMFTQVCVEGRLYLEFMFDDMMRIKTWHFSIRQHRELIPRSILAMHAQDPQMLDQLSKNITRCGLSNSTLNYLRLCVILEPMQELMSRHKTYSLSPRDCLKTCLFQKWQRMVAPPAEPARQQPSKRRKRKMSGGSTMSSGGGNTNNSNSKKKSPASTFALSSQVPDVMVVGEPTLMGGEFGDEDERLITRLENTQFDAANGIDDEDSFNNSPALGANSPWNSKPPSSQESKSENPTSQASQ

T3: GST-Isl1 (rat) (UniProt P61374)
T3 sequence: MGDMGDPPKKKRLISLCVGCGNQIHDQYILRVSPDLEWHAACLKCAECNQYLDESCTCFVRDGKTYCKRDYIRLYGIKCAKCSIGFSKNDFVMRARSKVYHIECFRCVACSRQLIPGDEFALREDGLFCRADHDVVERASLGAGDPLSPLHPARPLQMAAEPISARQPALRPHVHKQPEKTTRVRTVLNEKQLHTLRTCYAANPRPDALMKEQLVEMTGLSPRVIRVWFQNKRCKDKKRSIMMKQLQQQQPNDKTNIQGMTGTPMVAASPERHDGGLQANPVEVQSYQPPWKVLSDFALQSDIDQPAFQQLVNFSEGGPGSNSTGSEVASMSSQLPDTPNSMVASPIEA


Legend:
[1] = biological target: T1, GST-NLI (mammalian expression, pEBG) (mouse); assay: pull-down; GST pull-down from transfected HEK293 cells (Flag- and GST-tagged constructs); lysis in IP buffer (20 mM Tris-HCl pH 8.0, 0.5% NP-40, 1 mM EDTA, 150 mM NaCl, 10% glycerol); glutathione sepharose beads; western blot
GST-NLI (mouse) = biological target: T2, GST-NLI (mouse); assay: pull-down; in vitro GST pull-down: GST fusion proteins on glutathione sepharose beads incubated with in vitro translated Lhx8, Lhx3 or Lhx1; bound proteins eluted by boiling, western blot with anti-HA, Odyssey imaging; only the target purified
GST-Isl1 (rat) = biological target: T3, GST-Isl1 (rat); assay: as above
[2] = biological target: GST-Lhx8 (mammalian expression, pEBG) (mouse) (UniProt O35652); assay: pull-down; GST pull-down from transfected HEK293 cells (Flag- and GST-tagged constructs); lysis in IP buffer (20 mM Tris-HCl pH 8.0, 0.5% NP-40, 1 mM EDTA, 150 mM NaCl, 10% glycerol); glutathione sepharose beads; western blot

| Molecule | binding [1] | binding (GST-NLI (mouse)) | binding (GST-Isl1 (rat)) | binding [2] |
| --- | --- | --- | --- | --- |
| Flag-Lhx8 (from UniProt O35652 1-367) | binds | – | – | – |
| Lhx1 (HA-tagged, in vitro translated) (protein, UniProt P63006 1-406) MVHCAGCKRPILDRFLLNVLDRAWHVKCVQCCECKCNLTEKCFSREGKLYCKNDFFRCFGTKCAGCAQGISPSDLVRRARSKVFHLNCFTCMMCNKQLSTGEELYIIDENKFVCKEDYLSNSSVAKENSLHSATTGSDPSLSPDSQDPSQDDAKDSESANVSDKEGGSNENDDQNLGAKRRGPRTTIKAKQLETLKAAFAATPKPTRHIREQLAQETGLNMRVIQVWFQNRRSKERRMKQLSALGARRHAFFRSPRRMRPLVDRLEPGELIPNGPFSFYGDYQSEYYGPGGNYDFFPQGPPSSQAQTPVDLPFVPSSGPSGTPLGGLDHPLPGHHPSSEAQRFTDILAHPPGDSPSPEPSLPGPLHSMSAEVFGPSPPFSSLSVNGGASYGNHLSHPPEMNEAAVW | – | binds | no binding | – |
| Flag-Isl1 (protein, UniProt P61374 1-349) MGDMGDPPKKKRLISLCVGCGNQIHDQYILRVSPDLEWHAACLKCAECNQYLDESCTCFVRDGKTYCKRDYIRLYGIKCAKCSIGFSKNDFVMRARSKVYHIECFRCVACSRQLIPGDEFALREDGLFCRADHDVVERASLGAGDPLSPLHPARPLQMAAEPISARQPALRPHVHKQPEKTTRVRTVLNEKQLHTLRTCYAANPRPDALMKEQLVEMTGLSPRVIRVWFQNKRCKDKKRSIMMKQLQQQQPNDKTNIQGMTGTPMVAASPERHDGGLQANPVEVQSYQPPWKVLSDFALQSDIDQPAFQQLVNFSEGGPGSNSTGSEVASMSSQLPDTPNSMVASPIEA | – | – | – | binds |

More lines, now with the values ahead:

| binding [1] | binding (GST-NLI (mouse)) | binding (GST-Isl1 (rat)) | binding [2] | Molecule |
| --- | --- | --- | --- | --- |
| – | binds | binds | – | Lhx8 (HA-tagged, in vitro translated) (from UniProt O35652 1-367) |
| – | binds | binds | – | Lhx3 (HA-tagged, in vitro translated) (protein, UniProt P50481 1-400) MLLEAELDCHRERPGAPGASALCTFSRTPEIPMCAGCDQHILDRFILKALDRHWHSKCLKCSDCHVPLAERCFSRGESVYCKDDFFKRFGTKCAACQLGIPPTQVVRRAQDFVYHLHCFACVVCKRQLATGDEFYLMEDSRLVCKADYETAKQREAEATAKRPRTTITAKQLETLKSAYNTSPKPARHVREQLSSETGLDMRVVQVWFQNRRAKEKRLKKDAGRQRWGQYFRNMKRSRGSSKSDKDSIQEGQDSDAEVSFTDEPSMADMGPANGLYSSLGEPAPALGRPVGGLGSFTLDHGGLTGPEQYRELRPGSPYGIPPSPAAPQSLPGPQPLLSSLVYPDTNLSLVPSGPPGGPPPMRVLAGNGPSSDLSTESSSGYPDFPASPASWLDEVDHAQF |
